From the supplement of paper PMC11417369
± gives the standard deviation of the averaged measurements. The list shows a part of the results.

Test system: PfAP2-EXP AP2 domain (GST-tagged)
Assay: gcPBM binding intensity (ln(normalized median fluorescence intensity)); higher = stronger DNA binding
In short: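 After 1 h on an Agilent 4 × 180k array of primer-extended double-stranded 36-bp intergenic genomic probes and negative controls, bound GST-tagged P. falciparum DNA-binding domains were detected with Alexa488 anti-GST antibody and scanned at 488 nm. The domains had been expressed in E. coli, and binding took place in 1× PBS with 1% milk, 0.2 mg/ml BSA, 0.5% salmon testes DNA and 0.03% Triton X-100. Binding intensity is the highest Masliner-normalised natural-log median intensity across replicate spots of either probe orientation.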

Sequence	gcPBM binding intensity (ln)
TGTAATGTTTACAACACACAAATTAGAAATACAAAA [CACACA_site6924]	8.53 ± 0.44
AAGAAAAAATAAAGCACACAAATATTTTAAAAACAC [CACACA_site3325]	9.06 ± 0.33
TTATTTATAATGTTGTGTACATATATGAATATACCA [XGTACX_site3111]	8.38 ± 0.33
TATTTTACGTATTGTTGTACTTGAAACAAATATACA [XGTACX_site8778]	8.57 ± 0.34
GATATATATACATGTGTGCACCATGCAACTTGTTTT	9.19 ± 0.014
TTTTTTCAATTGGAAATTATTTTACAATGAAGGGTA [XGTACX_negctrl_site469]	8.44 ± 0.48
TATAAACATAAATATACACACAAACATATATGTATT [CACACA_site8324]	8.51 ± 0.42
AGACATATAATATATACACACATATATATATATATA [CACACA_site1066]	10 ± 0.61
CGTTTCCCCAATGGTTGTACAATATATATATATATA [XGTACX_site8641]	10.1 ± 0.31
ATACATATAATATATGCATGTACCAATCAAATATAT [TGCATGCA_site192]	8.71 ± 0.33
TTATTCTAGTAGTGTGTGCGCATGGACAATGCAATA	8.86 ± 0.28
TATATATCGTTATATACACACATGTATATAAAAAAT [CACACA_site7501]	8.46 ± 0.27
ATATTTTATTTATATACACACACATATATATATTAT [CACACA_site8177]	8.79 ± 0.47
CTTTATATAAAATAAAGTACATAAATTATGATATAT [XGTACX_site3699]	8.59 ± 0.4
TTCTTTATATACAAACCAAAATATTATGTATAATAA [CACACA_negctrl_site15]	8.26 ± 0.49
TTATTATATATTTTATTTATTAATAGTATATATTAT [TGCATGCA_negctrl_site155]	8.11 ± 0.27
TAATTTTTTTTTATGATACACACTTGGATAATTAAA [CACACA_site562]	8.19 ± 0.39
AAGGAAATATAATATACACACATAAGTGTACTTATA [CACACA_site4030]	8.23 ± 0.22
GAAAAATTAAAAATAACACACACATATATATATTTA [CACACA_site8896]	8.46 ± 0.44
TAATAAAGTGAATAATGTACATTTTATTTATTATAT [XGTACX_site6614]	8.24 ± 0.34
ATTATATATCCCTATTCACACATGTATTATATAAAT [CACACA_site5486]	8.97 ± 0.46
TCAGTAATACTTGAATGTACTTATATTGTTTGTTTG [XGTACX_site6449]	8.41 ± 0.32
CCTATATTAAAACAAGCACACAATCGCATAATATCC [CACACA_site9052]	8.71 ± 0.57

Sequence	gcPBM binding intensity (ln)
TTAACATATTTGTTAGTGCATTTTGATATTACACAT [GTGCAC_site9978]	8.6 ± 0.33
AAAAAAATTAAATGTACACACACCTTAAACAATGTC [CACACA_site1855]	8.48 ± 0.36
CTAATATCTGTATGCACACACAATAAATACATATTT [CACACA_site5797]	8.52 ± 0.31
ATTTATTTTATATGTTGTACAAACATTTTAAAACAT [XGTACX_site6919]	8.65 ± 0.42
TCTTTTTCTTGACGAGTGCAAAAATTGTGTTTGAAA	8.92 ± 0.028
ATAAATAAATAAATAAATAAATAAATAAATATATAT [CACACA_negctrl_site1728]	8.42 ± 0.21
TTTTTTTAAAGAATTATCATAAAATGATTGCATCAT [XGTACX_negctrl_site141]	7.9 ± 0.4
AATGCCTTGTTGAGGTGTACTGAATGTTATTTTAAT [XGTACX_site3255]	8.28 ± 0.45
ATCAACATCTAACATTGTACATGTGATGTGTAAAAG [XGTACX_site547]	8.49 ± 0.33
ATATTTGCCCAAGATAGTACATATATATATATATAT [XGTACX_site7756]	10.2 ± 0.24
TATATATATATATATTGTACATATATTATTATATAT [XGTACX_site7447]	10.2 ± 0.57
AAATAGCCAAAAATCATGCACACCTAAAAAAAAAAA [CACACA_site2572]	8.57 ± 0.42
ATATTGGAGCACAACACACACAAGTATATATATGGA [CACACA_site1546]	8.8 ± 0.47
CACATACAGACATACACACACATATATATTAATATA [CACACA_site546]	8.65 ± 0.49
CATACATACAAACACACACACACACCGATATATATA [CACACA_site8952]	8.8 ± 0.49
AATTCTCTTAATAAATAAACACAAATAAATAATAAA [GTGCAC_negctrl_site499]	8.47 ± 0.35
TATATAATAAAAAAAAGTACTTGGACAATATTATTT [XGTACX_site2802]	8.68 ± 0.42
TTAATTTACATGAACTGTACATAACATTTTTTTAAA [XGTACX_site4672]	8.38 ± 0.38
ATCAAAATATTTATATGTACATATTAAAAATATAGA [XGTACX_site725]	8.41 ± 0.33
AATGTTTTATTTTGAAGTACATTTAAGAATTTTTTA [XGTACX_site7814]	8.17 ± 0.44
TATATATGCATATACATACACACATAACACATACGT [CACACA_site3833]	8.61 ± 0.37
TTATGTTCTTTAAAACCACACACCCCCCAACCCCCC [CACACA_site8742]	10.9 ± 0.29
